Test results from PMC4336329 (PLoS ONE, 2015).
The campaign covered roughly 310,000 compounds. About 14,000 (4.5%) showed an effect of 50% or more. The effect is printed as a negative number. This is one part of the list. *1 amine or outer side, *2 acyl side, *3 side chain or, on linkers, in order; H or OH if unused. Where a SMILES comes first, the peptide text is derived from it. Bridges are numbered along the chain shown (N, C = ends). [ ]: non-standard residue; d: D form. ξ: configuration not given here. hSer(Ph(2-I,4-NO2,6-CO)) = O=C([C@H](CCOc1c(I)cc([N+](=O)[O-])cc1C(=O)[*:3])N[*:1])[*:2]; ξD = NC(CC(=O)O)C(=O)O

target: human ether-à-go-go-related gene (hERG) potassium channel (human, UniProt Q12809); assay: primary screen, population patch clamp on CHO cells stably expressing hERG
Sequence (Q12809 whole entry, looked up): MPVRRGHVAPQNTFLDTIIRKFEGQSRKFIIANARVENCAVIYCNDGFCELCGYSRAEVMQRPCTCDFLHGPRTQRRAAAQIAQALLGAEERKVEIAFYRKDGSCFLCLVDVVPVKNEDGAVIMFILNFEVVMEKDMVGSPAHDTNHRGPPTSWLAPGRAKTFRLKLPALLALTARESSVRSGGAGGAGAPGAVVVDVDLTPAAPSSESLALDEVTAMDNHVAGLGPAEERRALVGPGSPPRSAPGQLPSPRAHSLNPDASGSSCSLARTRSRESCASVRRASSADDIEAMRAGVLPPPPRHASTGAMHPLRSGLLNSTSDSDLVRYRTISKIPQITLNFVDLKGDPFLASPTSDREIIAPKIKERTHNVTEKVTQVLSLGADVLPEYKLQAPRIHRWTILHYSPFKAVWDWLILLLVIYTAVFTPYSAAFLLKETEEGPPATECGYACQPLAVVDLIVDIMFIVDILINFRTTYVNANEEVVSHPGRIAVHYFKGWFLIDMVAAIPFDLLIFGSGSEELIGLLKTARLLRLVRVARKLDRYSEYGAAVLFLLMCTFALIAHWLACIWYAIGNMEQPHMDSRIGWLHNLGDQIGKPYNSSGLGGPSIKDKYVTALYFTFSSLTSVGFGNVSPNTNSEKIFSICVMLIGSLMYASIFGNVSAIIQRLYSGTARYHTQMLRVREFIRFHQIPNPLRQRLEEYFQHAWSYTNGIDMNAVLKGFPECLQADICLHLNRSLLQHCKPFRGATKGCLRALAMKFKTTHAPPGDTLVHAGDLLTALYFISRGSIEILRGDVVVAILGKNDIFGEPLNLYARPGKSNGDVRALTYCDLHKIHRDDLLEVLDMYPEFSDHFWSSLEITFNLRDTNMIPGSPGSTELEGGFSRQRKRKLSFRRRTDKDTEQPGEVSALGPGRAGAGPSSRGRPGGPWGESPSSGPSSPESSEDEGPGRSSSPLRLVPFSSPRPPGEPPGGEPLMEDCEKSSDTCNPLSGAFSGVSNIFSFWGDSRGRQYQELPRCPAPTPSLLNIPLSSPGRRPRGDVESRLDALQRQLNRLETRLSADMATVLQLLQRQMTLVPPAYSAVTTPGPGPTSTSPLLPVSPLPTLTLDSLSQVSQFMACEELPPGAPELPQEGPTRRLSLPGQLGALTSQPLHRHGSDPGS
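Also: peak tail current of the secondary pulse compared with the same well before compound.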

Structure (SMILES) | hERG current change (%, negative = inhibition) at 10uM
O=C(O)/C=C/C(=O)Nc1ccc(OC(F)(F)F)cc1 | 8.3%
CC(C)CC1NC(=O)N(CC(=O)Nc2cccc(Br)c2)C1=O (centres unmarked) | 1.02%
CN(Cc1ccccc1)C(=O)c1ccc(NC(=O)Cc2cccc(NC(=O)C3CCCN(C(=O)CCc4ccccc4)C3)c2)cc1 (centres unmarked) | 5.19%
CC(Oc1ccc(F)cc1F)C(=O)/C=C/N(C)C (centres unmarked) | -3.08%
Cc1ccc(-c2csc3ncn(CC(=O)NCC(c4ccco4)N4CCCC4)c(=O)c23)cc1 (centres unmarked) | -39.7%
COc1ccc(OCc2csc(N)n2)cc1 | 39.4%
CN(C)/C=C(\C#N)C(=O)c1cccnc1Oc1ccc(F)cc1F | -5.93%
CCCCNc1ncnc2c1cnn2Cc1ccc(Cl)cc1 | -2.19%
CCCCN(C(=O)CSCc1c(C)noc1C)c1c(N)n(CCC)c(=O)[nH]c1=O | 15.9%
CCSc1nnc(-c2cccc(S(=O)(=O)N(CC)CC)c2)n1Cc1ccccc1 | -62.6%
CC(=O)N(C1=C(Cl)C(=O)c2ccccc2C1=O)C1CCCCC1 | -10.6%
COc1ccc(-c2nnn(CC(=O)N3CCN(c4ccc(F)cc4)CC3)n2)cc1 | -0.297%
O=C(Nc1cccc(F)c1)N(Cc1ccc(Cl)cc1)CC(O)C(F)(F)F (centres unmarked) | -13.5%
CC(C)C(=O)N1CCC2(CC1)Oc1ccc(Cl)cc1C(=O)C21CC(c2ccccc2)=NO1 (centres unmarked) | -46.4%
S=C(NNC(=S)NC1CC2CCC1C2)NC1CC2C=CC1C2 (centres unmarked) | 15.1%
COc1ccc(NC(=O)Cn2nnc(C(=O)NCc3ccc4c(c3)OCO4)c2N)cc1 | 18.4%
COC(=O)C1=C(C)NC(C)=C(C(=O)OC)C1c1ccc(-c2cc(Cl)ccc2Cl)o1 | 7.34%
c1ccc(-c2ccccc2-n2cnnn2)cc1 | -8.42%
CN(C)c1ccc(P(=O)(Nc2cccc(C(F)(F)F)c2)N2CCOCC2)c(NC(=O)c2cccs2)c1 (centres unmarked) | 10.1%
CC(C)Oc1cccc(C(=O)NC(=S)Nc2ccccc2N2CCOCC2)c1 | -6.42%
Fc1ccc(Sc2nc(-c3ccccc3)nnc2C(F)(F)F)cc1 | 21.5%
COc1ccccc1COCC(O)CN1CCCCC1CO.O=C(O)C(=O)O (centres unmarked) | 18.6%

Structure (SMILES) | hERG current change (%, negative = inhibition) at 10uM
O=C(COc1cc(Cl)ccc1Cl)Nc1ccc2[nH]c(=O)[nH]c2c1 | 12.8%
Cc1cc(S(=O)(=O)NCCc2ccccc2)ccc1-n1cnnn1 | -17.1%
O=[N+]([O-])c1ccc(S(=O)(=O)N/N=C/c2ccco2)cc1 | 7.64%
Nc1nc(N)nc(-c2cc(O)ccc2O)n1 | 10.3%
Cc1ccc(C)c(NC(=O)CCC(=O)NNC(=O)c2cccs2)c1 | 13.1%
O=C(Nc1cc(S(=O)(=O)Nc2ccccc2Cl)ccc1O)c1cc2c(s1)CCCC2 | 24.7%
Cn1c(/C=C/N2CCOCC2)c(C(=O)c2ccc(Br)cc2)c(=O)n(C)c1=O | -28.8%
CCCN1Cc2cccc(C(=O)NCc3ccc(C)cc3)c2C1=O | -29.8%
COc1cc(CNCc2ccccn2)ccc1OCc1c(Cl)cccc1Cl.Cl | -51.5%
COc1ccc(C2c3ccc(O)cc3Oc3ncn4nc(-c5ccncc5)nc4c32)cc1OC (centres unmarked) | 5.39%
Cc1c(/C=C/C(=O)c2ccccc2)cnn1C | -4.99%
O=C(Nc1cccc(Cl)c1)OC1CN2CCC1CC2 (centres unmarked) | 29.5%
COc1ccccc1N1CCN(Cc2nc3ccccc3[nH]2)CC1 | 1.11%
CCOc1ccc2nc(NC(=O)CSc3nnc(-c4ccncc4)n3CC3CCCO3)sc2c1 (centres unmarked) | 3.71%
Cc1nc2sccn2c(=O)c1S(=O)(=O)NC(C)c1ccccc1 (centres unmarked) | 5.95%
CC(C)(C)C(=O)Nc1ccccc1N1CCN(C(=O)c2ccc(Cl)cc2)CC1 | -48.2%
Fc1ccccc1Nc1nc(N2CCOCC2)nc(N2CCOCC2)n1 | 29.1%
N#Cc1ccc(COC(=O)c2ccc(N3CCCC3)c([N+](=O)[O-])c2)cc1 | -23.8%
O=C(CN1CCC(NC(=O)Nc2ccccc2)CC1)Nc1cccc([N+](=O)[O-])c1 | -40.6%
CC(C)NC(=O)Cn1cc(S(=O)(=O)N2CCCC2)c(S(=O)(=O)N2CCCC2)c1 | 10.9%
C[C@H](NC(=O)OCc1ccccc1)c1nnc([C@H](Cc2ccccc2)NC(=O)OC(C)(C)C)o1 | -18%
O=C(CCC(=O)c1cccs1)NNC(=O)c1cccc(Cl)c1 | -8.43%

Structure (SMILES) | hERG current change (%, negative = inhibition) at 10uM
O=c1[nH]c(/C(Cl)=C/c2cc(Cl)ccc2O)nc2cc(Cl)ccc12 | -6.62%
CCCCC(=O)Nc1nc(C)c(C(C)=O)s1 | -0.362%
COc1ccc(N/N=C(/C)c2cnnc(-c3ccccc3)n2)cc1 | -6.65%
Cc1cc(NC(=O)CSc2nc3ccsc3c(=O)n2NC(=O)c2ccccc2)no1 | -1.69%
CC(=O)N1CCN(C(=O)CCNS(=O)(=O)c2ccccc2)CC1 | 3.75%
Cc1ccc(C(=O)N(CC(=O)NC2CCCCC2)c2ccccc2C)s1 | -17.6%
CCC1Oc2ccc(C)cc2N(CC(=O)N(Cc2cccnc2)Cc2ccc(C)o2)C1=O (centres unmarked) | -32.8%
O=C(CSCc1cnn(-c2ccccc2)c1-n1cccc1)NCC1CCCO1 (centres unmarked) | 0.25%
Cc1cccc(OCCC(=O)Nc2ccc(S(=O)(=O)N3CCCC3)cc2)c1 | 11.7%
CC(=Nc1ccc(O)cc1)c1sc2ccccc2c1O | 8.57%
CCOC(=O)c1ccc(NC(=O)N(CC)CC)cc1 | 4.46%
O=P(Nc1cccc(Cl)c1)(Oc1ccccc1)Oc1ccccc1 | 19%
CC(C)(C)Nc1c(N)c(=O)oc2ccccc12 | 3.05%
COc1ccc(Nc2nc3c(C)cccc3cc2C#N)cc1 | 11.6%
COC(=O)C1=C(C)NC(C)=C(C(=O)OCCN(C)Cc2ccccc2)C1c1cccc([N+](=O)[O-])c1.Cl (centres unmarked) | 0.0465%
CCN(CC)CCOCCOC(=O)C1(c2ccccc2)CCCC1.O=C(O)CC(O)(CC(=O)O)C(=O)O | -25.7%
O=C(N/N=C/c1ccccc1)c1cc[n+]([O-])cc1 | 29.2%
COc1ccc(CNC(=O)c2ccccc2NS(C)(=O)=O)cc1 | 3.91%
CC(C)NC(=S)N1CCN(Cc2ccc3c(c2)OCO3)CC1 | 6.38%
Cc1nn(C)c(C)c1/C=N/NC(=O)CCn1cc([N+](=O)[O-])cn1 | 10.3%
COc1ccc(OC)c(CNc2c(C=O)c(=O)[nH]c3ccccc23)c1 | 23.9%
NC(=O)c1cn(C2CCCCC2)c2ccccc2c1=O | -65.2%

Structure (SMILES) | hERG current change (%, negative = inhibition) at 10uM
C#CCN(C)C(C)Cc1ccccc1.Cl (centres unmarked) | 6.85%
Cc1ccc2c(N)c(C#N)sc2n1 | 14.1%
Cc1nnc(NC(=O)c2oc3c(ccc4ccccc43)c2C)s1 | 23.4%
CCN(CC)S(=O)(=O)c1ccc(C)c(NC(=O)COC(=O)[C@@H]2CCCN2C(=O)c2cccs2)c1 | -13.8%
OCC1(Cc2ccccc2C(F)(F)F)CCN(Cc2cccc3cnccc23)CC1 | -11%
C/C(=N\NC(=O)C1CC1)c1ccc(NC(=O)c2ccc(Br)o2)cc1 | 21.6%
CCOC(=O)Cc1csc(NC(=O)Nc2ccc(F)cc2)n1 | 16.1%
CCC1(c2ccccc2)NC(=O)N(CC(=O)Nc2cc(S(=O)(=O)N3CCOCC3)ccc2OC(C)C)C1=O (centres unmarked) | -55.7%
Cn1c(-c2c(N)n(-c3ccccc3)c3nc4ccccc4nc23)nc2ccccc21 | -11%
CCN(c1ccc(Cl)cc1)S(=O)(=O)c1nnc(NC(=O)C(C)C)s1 | 10.4%
Cc1cc(Cl)ccc1C(=O)C1CCCN(C(=O)c2cccc(N3CCCC3=O)c2)C1 (centres unmarked) | -20.6%
COc1ccccc1NS(=O)(=O)N(C)C | 11.3%
CCNC(=S)Nc1cccc(F)c1C | 10.4%
CS(=O)(=O)N(Cc1ccc(Cl)cc1)c1ccc(C(=O)NCCC2=CCCCC2)cc1 | 0.523%
NC(=O)C(CC(=O)O)NC(=O)[C@@H]1CCOc2c(I)cc([N+](=O)[O-])cc2C(=O)N[C@@H](CO)C(=O)N[C@@H](Cc2ccc(O)cc2)C(=O)N1 (some centres unmarked) (SY[hSer(Ph(2-I,4-NO2,6-CO))][ξD]-NH2; lactam N-3) | -4.16%
CCN(CC)S(=O)(=O)c1ccc2c(c1)NC(=O)C1CCCN21 (centres unmarked) | 1.95%
CC(=O)Nc1nc(-c2ccc3c(c2)CCO3)cs1 | -0.22%
Cc1ccc(S(C)(=O)=NC(=O)NC(=O)c2c(Cl)cccc2Cl)cc1 (centres unmarked) | -5.16%
COC(=O)C1=C(C)NC(C)=C(C(=O)OC)C1c1ccc(NC(C)=O)cc1 | 14.8%
CC(C)(C)c1ccc(OC(=O)N2CCCCC2)cc1 | 19.8%
